The other results are listed elsewhere or left out.

B1: PhoQ; a variant is named by its letters at X, in order, P23837 (parent)
chain: MKKLLRLFFPLSLRVRFLLATAAVVLVLSLAYGMVALIGYSVSFDKTTFRLLRGESNLFYTLAKWENNKLHVELPENIDKQSPTMTLIYDENGQLLWAQRDVPWLMKMIQPDWLKSNGFHEIEADVNDTSLLLSGDHSIQQQLQEVREDDDDAEMTHSVAVNVYPATSRMPKLTIVVVDTIPVELKSSYMVWSWFIYVLSANLLLVIPLLWVAAWWSLRPIEALAKEVRELEEHNRELLNPATTRELTSLVRNLNRLLKSERERYDKYRTTLTDLTHSLKTPLXXLQXXLRSLRSEKMSVSDAEPVMLEQISRISQQIGYYLHRASMRGGTLLSRELHPVAPLLDNLTSALNKVYQRKGVNISLDISPEISFVGEQNDFVEVMGNVLDNACKYCLEFVEISARQTDEHLYIVVEDDGPGIPLSKREVIFDRGQRVDTLRPGQGVGLAVAREITEQYEGKIVAGESMLGGARMEVIFGRQHSAPKDE

In the experiment the parent is B1. Put plainly: enrichment ratio after two sorts for PhoP signalling (ratio (wild type AVST 3.29)); higher = more functional. The following applies: with PhoP (E. coli).
As for RQTT, the enrichment ratio is at most 0.25.

Take RNGW: the enrichment ratio was at most 0.25.

As to GHHP, the enrichment ratio is at most 0.25.

Regarding GWVM, the enrichment ratio was at most 0.25.

As to TCME, the enrichment ratio is at most 0.25.

In the case of DATN, the enrichment ratio was at most 0.25.

For RHLT, the enrichment ratio is at most 0.25.

For SVVD, the enrichment ratio was at most 0.25.

On to FNCI, for which the enrichment ratio was at most 0.25.

On to PWKQ, for which the enrichment ratio is at most 0.25.

For the variant ELDI, the enrichment ratio is at most 0.25.

Consider DCCG, for which the enrichment ratio was at most 0.25.

In the case of KDNP, the enrichment ratio was at most 0.25.

For PQIL, the enrichment ratio is at most 0.25.

Take TYME: the enrichment ratio was at most 0.25.

SNTD: the enrichment ratio is at most 0.25.

Regarding PMRD, the enrichment ratio was at most 0.25.

As for QTFC, the enrichment ratio is at most 0.25.

In the case of SFFS, the enrichment ratio was at most 0.25.

Take GVPL: the enrichment ratio is at most 0.25.

Regarding GPTY, the enrichment ratio is at most 0.25.

For FLAR, the enrichment ratio was at most 0.25.

For the variant FFWI, the enrichment ratio is at most 0.25.

As to MTWY, the enrichment ratio was determined as 21.6.

Regarding GNWH, the enrichment ratio is at most 0.25.

On to REMG, for which the enrichment ratio was at most 0.25.

TGNQ: the enrichment ratio was 4.5.

As to SSLM, the enrichment ratio came to 17.1.

DHHN: the enrichment ratio was at most 0.25.

As to PGHF, the enrichment ratio is at most 0.25.

As for MMNT, the enrichment ratio is at most 0.25.

Consider EEFS, for which the enrichment ratio was at most 0.25.

Turning to EFCV, the enrichment ratio was at most 0.25.

In the case of RAMM, the enrichment ratio is at most 0.25.

GAMM: the enrichment ratio worked out at 14.4.

As to DDIV, the enrichment ratio is at most 0.25.

On to QMNS, for which the enrichment ratio was at most 0.25.

With PKHT, the enrichment ratio is at most 0.25.

Regarding FAHG, the enrichment ratio is at most 0.25.

On to QQKT, for which the enrichment ratio was at most 0.25.

With PELN, the enrichment ratio is at most 0.25.

For the variant SHGQ, the enrichment ratio was at most 0.25.

As to FDIA, the enrichment ratio was at most 0.25.

With RHLE, the enrichment ratio is at most 0.25.

Take PVMT: the enrichment ratio was at most 0.25.

For FGCC, the enrichment ratio stood at 13.2.

Turning to DAMG, the enrichment ratio is at most 0.25.

On to AHFW, for which the enrichment ratio is at most 0.25.

For the variant AQHY, the enrichment ratio was at most 0.25.

TYVY: the enrichment ratio is at most 0.25.

As for GINR, the enrichment ratio is at most 0.25.

Consider RTMN, for which the enrichment ratio is at most 0.25.

For HDSG, the enrichment ratio was at most 0.25.

ICMQ: the enrichment ratio was at most 0.25.

Take KSFH: the enrichment ratio was at most 0.25.

Consider FLTY, for which the enrichment ratio was at most 0.25.

For TKFT, the enrichment ratio was at most 0.25.

Regarding DRFC, the enrichment ratio is at most 0.25.

As for SDFY, the enrichment ratio is at most 0.25.

With DMVI, the enrichment ratio is at most 0.25.

With AFSQ, the enrichment ratio was at most 0.25.

For KPCQ, the enrichment ratio is at most 0.25.

Take TFRQ: the enrichment ratio was at most 0.25.

Take IPEL: the enrichment ratio is at most 0.25.

For the variant VPDM, the enrichment ratio is at most 0.25.

Regarding NLMM, the enrichment ratio was at most 0.25.

Consider DTAM, for which the enrichment ratio was at most 0.25.

Turning to SCFT, the enrichment ratio was at most 0.25.

For AWHD, the enrichment ratio turned out to be 24.7.

On to YIFM, for which the enrichment ratio was at most 0.25.

On to ASND, for which the enrichment ratio was at most 0.25.

Regarding ILCM, the enrichment ratio was at most 0.25.

Turning to MGCL, the enrichment ratio amounted to 3.84.

In the case of NIIK, the enrichment ratio was at most 0.25.

Consider HFAD, for which the enrichment ratio was at most 0.25.

In the case of EKVC, the enrichment ratio was at most 0.25.

As to LELE, the enrichment ratio is at most 0.25.

For LMCY, the enrichment ratio was at most 0.25.

Turning to RPCE, the enrichment ratio was at most 0.25.

As for YWLQ, the enrichment ratio was at most 0.25.

For DYQP, the enrichment ratio is at most 0.25.

In the case of QVIS, the enrichment ratio is at most 0.25.

For PEPW, the enrichment ratio is at most 0.25.

On to PSEW, for which the enrichment ratio is at most 0.25.

In the case of SPKS, the enrichment ratio was at most 0.25.

With NFDS, the enrichment ratio was at most 0.25.

MFAH: the enrichment ratio was at most 0.25.

Consider VDIT, for which the enrichment ratio was at most 0.25.

With LCQQ, the enrichment ratio was at most 0.25.

In the case of HSQY, the enrichment ratio was at most 0.25.

In the case of KSNY, the enrichment ratio is at most 0.25.

Turning to KGAI, the enrichment ratio was at most 0.25.

As for QVAP, the enrichment ratio is at most 0.25.

On to SQEI, for which the enrichment ratio was at most 0.25.

Consider NRAY, for which the enrichment ratio is at most 0.25.

Consider MREI, for which the enrichment ratio was at most 0.25.

Consider YPKY, for which the enrichment ratio was at most 0.25.

On to FIHH, for which the enrichment ratio was at most 0.25.

Take LAIQ: the enrichment ratio is at most 0.25.

As for PVTY, the enrichment ratio is at most 0.25.

In the case of PVFS, the enrichment ratio is at most 0.25.

VLRW: the enrichment ratio was found to be 0.62.

For the variant IHQD, the enrichment ratio was at most 0.25.

Take EYYI: the enrichment ratio was at most 0.25.

With KAVS, the enrichment ratio is at most 0.25.

Consider HIRC, for which the enrichment ratio is at most 0.25.

In the case of FSEQ, the enrichment ratio is at most 0.25.

On to EMNS, for which the enrichment ratio is at most 0.25.

As for LCVT, the enrichment ratio was at most 0.25.

Regarding DMLW, the enrichment ratio was at most 0.25.

With HPVQ, the enrichment ratio is at most 0.25.

For the variant ILPS, the enrichment ratio was at most 0.25.

With VDNA, the enrichment ratio was at most 0.25.

For TGQA, the enrichment ratio is 3.89.

For the variant MHGP, the enrichment ratio was at most 0.25.

With VAYV, the enrichment ratio is at most 0.25.

Regarding YNLE, the enrichment ratio amounted to 1.

As to YYRV, the enrichment ratio was at most 0.25.

With KFDT, the enrichment ratio was at most 0.25.

For the variant TGPH, the enrichment ratio was at most 0.25.

As for KVVF, the enrichment ratio was at most 0.25.

In the case of DTNW, the enrichment ratio is at most 0.25.

Turning to HFVQ, the enrichment ratio is at most 0.25.

Consider MYPV, for which the enrichment ratio is at most 0.25.

As for DAHN, the enrichment ratio is at most 0.25.

Turning to QSEQ, the enrichment ratio was at most 0.25.

Consider FQNP, for which the enrichment ratio is at most 0.25.

As for PSRV, the enrichment ratio was at most 0.25.

On to MRCM, for which the enrichment ratio was at most 0.25.

MAFW: the enrichment ratio is at most 0.25.

For the variant DPIC, the enrichment ratio was at most 0.25.

As to SEMV, the enrichment ratio was found to be 23.8.

For the variant TSVQ, the enrichment ratio turned out to be 3.16.

With QGGR, the enrichment ratio is at most 0.25.

For HLTT, the enrichment ratio is at most 0.25.

For the variant FVPH, the enrichment ratio is at most 0.25.

Regarding LCNS, the enrichment ratio was at most 0.25.

NICG: the enrichment ratio came out at 0.875.

As for GMTA, the enrichment ratio was at most 0.25.

On to HNLF, for which the enrichment ratio is at most 0.25.

For ISRA, the enrichment ratio is at most 0.25.

As to GHNC, the enrichment ratio is at most 0.25.

RQSY: the enrichment ratio was at most 0.25.

Take HFRH: the enrichment ratio is at most 0.25.

For EETN, the enrichment ratio was at most 0.25.

With YFYA, the enrichment ratio was at most 0.25.

As to AFRV, the enrichment ratio was at most 0.25.

As to WFRT, the enrichment ratio is at most 0.25.

Take AFAH: the enrichment ratio was at most 0.25.

In the case of RSHR, the enrichment ratio was at most 0.25.

For the variant ADAW, the enrichment ratio was at most 0.25.

GKYS: the enrichment ratio was at most 0.25.

As to PISQ, the enrichment ratio was at most 0.25.

The values are drawn from a collection of fitness landscapes (doi:10.1126/science.1257360).
